In PubChem BioAssay AID1508623 (National Center for Advancing Translational Sciences (NCATS), 2021):
Among all 48,000 compounds or so, about 450 (0.94%) were called active. Inconclusive results (about 19%) are left out. Calls follow the shape of the dose curve; as a rule, active = well fitted inhibition curve with a large enough effect; inconclusive = small, poorly fitted or top-dose-only effect; inactive = no such curve, though single readings can be large or run the other way. The list shows a part of the results.

assay: Primary qHTS for Identification of Small Molecule Inhibitors of Huntingtin Promoter Activity; settings: HEK293 HTT promoter firefly luciferase reporter (activity 0% = vehicle and -100% = no light), 24 h; series mostly up to 57.5 µM; activity change, negative = inhibition: at the top concentration; also: nearly all actives have a fitted effect of over 50% in size
Outline: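 Quantitative HTS used concentration series of up to 57.5 uM final on HEK293 luciferase reporter cells, 24 h at 37 degrees C. Readout was Dual-Glo firefly luminescence.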
Potency is read from the fitted curve at half-maximal effect.

SMILES	activity change, negative = inhibition	Potency
COc1ccc(OCC(=O)N(Cc2sccc2C)C2CCS(=O)(=O)C2)cc1 (stereo not drawn)	inactive: -5.52%	
CCN(CC)C(=O)Cn1c(=O)n(Cc2ccc(C(=O)NCCCOC)cc2)c(=O)c2ccccc21	inactive: -10.7%	
O=C(Nc1ccc(F)cc1F)c1cc(S(=O)(=O)N2CCCCC2)c[nH]1	inactive: -24.7%	
Cc1ccc(C)c(N2C(=O)N(Cc3cccc(C(F)(F)F)c3)c3ccccc3S2(=O)=O)c1	inactive: -30.1%	
Cc1ccc(C)c(NC(=O)N2CCN3CCCCC3C2)c1 (stereo not drawn)	inactive: -10.8%	
COc1ccc(C(=O)CCC(=O)Nc2ccc(F)cc2F)cc1	inactive: -18.1%	
COc1ccc(F)cc1S(=O)(=O)Nc1ccc2c(c1)CCCN2C(=O)c1cccs1	inactive: -26.9%	
CCOC(=O)CSc1nc2cc(OC)c(OC)cc2c2nc(-c3ccccc3)nn12	inactive: 0.737%	
COC(=O)c1sccc1S(=O)(=O)N(CC(=O)NCc1ccc(C)cc1)c1ccc(C)c(C)c1	inactive: -1.34%	
CCOC(=O)C1=C(C)N=C2SCCC(=O)N2C1c1ccc(OCc2ccccc2)c(OC)c1 (stereo not drawn)	inactive: -23.8%	
CC(=O)c1c(C)oc2c1cc(NS(=O)(=O)c1c(C)cc(C)cc1C)c1ccccc12	inactive: -9.11%	
NS(=O)(=O)c1ccc(NC(=O)COc2ccc(S(=O)(=O)NC3CCCCC3)cc2)cc1	inactive: -6.59%	
COc1cccc(-n2nnc(-c3nc(-c4cccs4)no3)c2N)c1	inactive: 106%	
COc1ccc(NS(=O)(=O)c2ccc3[nH]c(=O)ccc3c2)cc1OC	inactive: -9.33%	
CCOc1ccc(S(=O)(=O)Nc2cccc(OC)c2)c2cccnc12	inactive: -18.2%	
COc1ccc(S(=O)(=O)N(CC(=O)Nc2ccccc2Cl)Cc2ccccc2)cc1	inactive: -34.2%	
Cc1ccc(CCNC(=O)CN2C(=O)COc3ccc(S(=O)(=O)N4CCCCCC4)cc32)cc1	inactive: -12.3%	
COc1cc(OC)cc(C(=O)Nc2ccc3nc4n(c(=O)c3c2)CCCCC4)c1	inactive: 69.2%	
CNC(=O)c1cnc2sc(N3CCCCCC3)nn2c1=O	inactive: 68.8%	
CCOc1ccc(N(CC)C(=O)CCc2nc(-c3ccccc3F)no2)cc1	inactive: -17.7%	
CCC(Sc1nnc(-c2ccc(OC)c(OC)c2)c(-c2ccc(OC)c(OC)c2)n1)C(=O)NC1CCCC1 (stereo not drawn)	inactive: -4.52%	
COc1cccc(NC(=O)Cn2nc(C)c3c(C)n(-c4ccccc4)nc3c2=O)c1	inactive: -25.2%	
Cc1cccn2c(=O)cc(CSc3nnc(NC(=O)c4ccc(F)cc4)s3)nc12	inactive: -2.37%	
O=C(NCCc1ccccc1)c1ccc(Cn2c(SCc3ccccc3)nc3cccnc32)cc1	inactive: 25%	

SMILES	activity change, negative = inhibition	Potency
CCCOc1ccc(Oc2nc(NCC(C)C)nc(N(C)C)n2)nn1	inactive: -18.4%	
CCc1ccc(NC(=O)C(Cc2ccccc2)NS(=O)(=O)c2ccc3c(c2)c(=O)n(C)c(=O)n3C)cc1 (stereo not drawn)	inactive: -17.6%	
Cc1nc(-n2nc(C)c(CCC(C)C)c2C)sc1C(=O)Nc1cccc(Cl)c1	inactive: -6.07%	
Cc1cccc(C)c1NC(=O)c1sc(-n2nc(C)c(Cc3ccc4c(c3)OCO4)c2C)nc1C	inactive: -8.17%	
O=C1C(O)=C(O)C(=O)C(O)=C1O	inactive: -19.1%	
Clc1ccc(NCc2nc3ccccc3n2CCOc2ccccc2)cc1	inactive: -26.7%	
COc1ccc(Cl)cc1NC(=O)Cn1c(=O)c2ccccc2n2nncc12	inactive: -9.23%	
COc1cc(CNCCSc2nnnn2C)ccc1OCc1ccc(Cl)cc1Cl	inactive: -19.2%	
Cc1ccc(NC(=O)Cn2nc3c(cc2=O)CCCC3)cc1Cl	inactive: -0.938%	
Cc1nccn1CC1CCc2c(c3ccccc3n2C)C1=O (stereo not drawn)	inactive	
CC(=O)c1ccc(NC(=O)CCc2c(C)nn(-c3ccc4nnc(C)n4n3)c2C)cc1	inactive: -4.87%	
COc1ccc(NC(=O)C2CCC(CNS(=O)(=O)c3ccc(Br)s3)CC2)c(OC)c1 (stereo not drawn)	inactive: -13.2%	
CC(C)CC(C(=O)NCC1CCN(Cc2ccc(F)cc2)CC1)N1Cc2ccccc2C1=O (stereo not drawn)	inactive: -4.39%	
COc1cc(NC(=O)N2CCC(CN3CCCCCC3)CC2)cc(OC)c1OC	inactive: -14.4%	
O=C(CSc1nc(-c2ccccc2)nc2cc(=O)[nH]n12)Nc1ccccc1	inactive: -7.29%	
Cc1ccccc1C(=O)N1c2ncnn2C2(CCCCC2)[C@@H]2CCCC[C@@H]21	inactive: -17.2%	
Cc1ccccc1Cn1c(=O)n(CCC(=O)NCc2ccco2)c(=O)c2sccc21	inactive: -1.02%	
COC(=O)C1=C(C)N(C(C)C)C(=O)C1(NC(=O)c1ccc(C(C)(C)C)cc1)C(F)(F)F (stereo not drawn)	inactive: -11.6%	
CC(C)Nc1nc2c(-c3cccc(Br)c3)nnn2c2ccccc12	inactive: 11%	
O=C(NCCn1cc(SCc2ccc(F)cc2)c2ccccc21)c1cccs1		active: 28.2 µM
CCn1cc(C(=O)N2CCN(c3cc(Cl)ccc3C)CC2)c(=O)c2cc(S(=O)(=O)N3CCCCC3)ccc21	inactive: -26.3% [at 11.5 µM]	
CC(=O)NC[C@H]1CN(c2ccc(N3CCOCC3)c(F)c2)C(=O)O1	inactive: 3.92%	
COc1ccccc1NC(=O)C1=C(C)Nc2nc(-c3ccco3)nn2C1c1ccccc1F (stereo not drawn)	inactive: -19.8%	
Cn1nnnc1SCCNCc1ccc(Cl)c(Cl)c1	inactive: -0.0551%	

SMILES	activity change, negative = inhibition	Potency
Cc1cccc(S(=O)(=O)c2cn(C)c3cc(N4CCN(c5ccccc5)CC4)c(F)cc3c2=O)c1	inactive: 7.78%	
Cc1ccc(Cn2c(C)c3cnn(CC(=O)NCCc4ccc(Cl)cc4)c(=O)c3c2C)cc1	inactive: -9.73%	
COc1cccc(CCNC(=O)c2cnc3sc(N4CCOCC4)nn3c2=O)c1	inactive: -14.6%	
COc1ccc(CNC(=O)c2ccc(NC(=O)N3CCSc4ncccc43)cc2)cc1	inactive: -13.6%	
CCCNC(=O)CN1CCN(c2ccc(NC(=O)c3ccc(OC)cc3)cc2C(=O)O)CC1	inactive: -12.3%	
Cc1ccccc1C(=O)N1CCC(C(=O)Nc2ccc(F)cc2F)CC1	inactive: -12%	
Cc1ccc(S(=O)(=O)c2nc(-c3ccccc3F)oc2NCc2ccccc2)cc1	inactive: 29.1%	
Cc1nc(N2CCOCC2)c2c(C(=O)N3CCN(c4ccccc4)CC3)c(C)oc2n1	inactive: 1.14%	
Cc1c2oc3c(C)ccc(C(=O)N[C@@H]4C(=O)N[C@H](C(C)C)C(=O)N5CCC[C@H]5C(=O)N(C)CC(=O)N(C)[C@@H](C(C)C)C(=O)O[C@@H]4C)c3nc-2c(C(=O)N[C@@H]2C(=O)N[C@H](C(C)C)C(=O)N3CCC[C@H]3C(=O)N(C)CC(=O)N(C)[C@@H](C(C)C)C(=O)O[C@@H]2C)c(N)c1=O	inactive: -38.4%	
Cc1cc2c(cc3c(SCC(=O)Nc4ccc(Cl)cc4F)nncn32)o1	inactive: -6.47%	
COCCCN1C(=O)c2oc3ccccc3c(=O)c2C12C(=O)N(C)c1ccccc12 (stereo not drawn)	inactive: -12.9%	
O=C(COc1ccccc1F)Nc1ccc(OCc2cc(=O)n3ccccc3n2)cc1	inactive: 17.8%	
COc1ccc(CC(=O)N2CCc3cc(OC)c(OC)cc3C2COc2ccc3c(C)cc(=O)oc3c2)cc1OC (stereo not drawn)	inactive: -18.9%	
CCOc1ccc(NC(=O)CCc2c(C)nc3c(-c4ccccc4)c(C)nn3c2C)cc1	inactive: -3.91%	
COC(=O)c1ccc(Cn2c(SCc3ccc(F)cc3)nc3ccncc32)cc1	inactive: -5.06%	
O=c1ccc2cc(S(=O)(=O)Nc3ccc(OC(F)(F)F)cc3)ccc2[nH]1	inactive: -27.1%	
Cc1ccc(CNC(=O)CSC2=Nc3ccccc3N=C(c3ccc(F)cc3)C2)cc1	inactive: -17.5%	
CC(C)CCn1c(=O)c2cccnc2n(CC(=O)Nc2ccccc2F)c1=O	inactive: -12.7%	
Cn1c2ccccc2c2cnn(CC(=O)Nc3ccccc3F)c(=O)c21	inactive: -7.97%	
Cc1cc(C)cc(NC(=O)c2c(C)oc3nc(C)nc(N4CCCC4)c23)c1	inactive: 1.51%	
CCOc1ccc(Nc2nn(-c3ccc(OC(F)(F)F)cc3)nc2C(C)=O)cc1	inactive: -10.9%	
COc1cccc(-c2noc(-c3cc(C(C)C)[nH]n3)n2)c1OC	inactive: 66.6%	
CC(=O)OC[C@H]1O[C@@H](OC(C)=O)[C@H](OC(C)=O)[C@@H]1OC(C)=O	inactive: 0.324%	
COc1ccccc1CNC(=O)CCNS(=O)(=O)c1ccc2c(c1)oc(=O)n2C	inactive: -4.64%	

SMILES	activity change, negative = inhibition	Potency
O=C(COc1ccc(F)cc1)NCc1ccc2c(c1)CCN2C(=O)c1ccccc1	inactive: -4%	
CNC(=O)c1ccc2c(c1)N(Cc1ccccc1Cl)C(=O)c1ccccc1S2	inactive: -5.29%	
O=C(Cn1c(=O)nc(-c2ccccc2F)c2cc(Cl)ccc21)NCCCc1ccccc1	inactive: -15.3%	
CCc1cccc(C)c1Nc1c(-c2ccsc2)nc2ncccn12	inactive: -29.6%	
COc1ccc(N2CCN(Cc3nnc(-c4ccc5c(c4)OCO5)o3)CC2)cc1	inactive: -9.88%	
Clc1ccc(-c2noc(-c3cccnc3NCc3ccco3)n2)cc1	inactive: 52.4%	
Cc1ccc(-n2nc(C)c3nc(CCC(=O)Nc4cccc(F)c4)c(=O)n(C)c32)cc1	inactive: -1.82%	
Cc1cccc(CNC(=O)CCCN2C(=O)CCn3nc(-c4cccn4C)cc32)c1	inactive: 0%	
COc1ccc2c(c1)c(CC(=O)OCC(=O)O)c(C)n2C(=O)c1ccc(Cl)cc1	inactive	
CCOc1c(Cl)cc(C(=O)N(Cc2ccc(N(C)C)cc2)Cc2ccco2)cc1Cl	inactive: -11.9%	
COc1ccc(CNC(=O)C2CCCN(c3nnc(C)c4c(C)n(-c5ccc(C)cc5)nc34)C2)cc1 (stereo not drawn)	inactive: 0.547%	
CCC(Sc1nc2ncccc2o1)C(=O)Nc1ccc(OC)c(OC)c1 (stereo not drawn)	inactive: 14%	
Cc1ccc2c(=O)cc(C(=O)Nc3sc4c(c3C(=O)NCC3CCCO3)CCCC4)oc2c1 (stereo not drawn)	inactive: -0.466%	
COc1ccc(C2CC(=O)c3cc(-c4nc(-c5cccc(Cl)c5)cs4)c(=O)[nH]c3C2)cc1 (stereo not drawn)	inactive: -18.9%	
O=S(=O)(c1ccc(Cl)cc1Cl)n1ccnc1	inactive: -1.87%	
O=C(Cn1ncc2c3ccccc3n(Cc3ccc(F)cc3)c2c1=O)NCc1ccccn1	inactive: -13.6%	
Cc1ccc(SCC(=O)Nc2ccc3oc(-c4cccc(Cl)c4)nc3c2)cc1	inactive: 6.14%	
O=C(NCc1ccccc1)C(=O)Nc1c2c(nn1-c1ccccc1)CSC2	inactive: -25%	
COc1ccc(OC)c(CNCc2c(C(=O)O)n(Cc3cccc(F)c3)c3cc(OC)ccc23)c1	inactive: -13.6%	
Cc1ccc(C(c2c(O)cc(C)n(Cc3ccco3)c2=O)N2CCC(C)CC2)cc1 (stereo not drawn)	inactive: -5.8%	
CC(=O)OC1C(C)OC(Oc2c(-c3ccc(O)cc3)oc3cc(O)cc(O)c3c2=O)C(O)C1OC(C)=O (stereo not drawn)	inactive: 7.43%	
